Results published in article PMC4336329 (PLoS ONE, 2015).
Among all 310,000 compounds or so, about 2,200 (0.71%) showed an effect of 50% or more. Effects have a minus sign here. Some of the results follow.

Target: human ether-à-go-go-related gene (hERG) potassium channel (human, UniProt Q12809)
Test: primary screen, population patch clamp on CHO cells stably expressing hERG

Sequence of human ether-à-go-go-related gene (hERG) potassium channel (Q12809 whole entry, looked up): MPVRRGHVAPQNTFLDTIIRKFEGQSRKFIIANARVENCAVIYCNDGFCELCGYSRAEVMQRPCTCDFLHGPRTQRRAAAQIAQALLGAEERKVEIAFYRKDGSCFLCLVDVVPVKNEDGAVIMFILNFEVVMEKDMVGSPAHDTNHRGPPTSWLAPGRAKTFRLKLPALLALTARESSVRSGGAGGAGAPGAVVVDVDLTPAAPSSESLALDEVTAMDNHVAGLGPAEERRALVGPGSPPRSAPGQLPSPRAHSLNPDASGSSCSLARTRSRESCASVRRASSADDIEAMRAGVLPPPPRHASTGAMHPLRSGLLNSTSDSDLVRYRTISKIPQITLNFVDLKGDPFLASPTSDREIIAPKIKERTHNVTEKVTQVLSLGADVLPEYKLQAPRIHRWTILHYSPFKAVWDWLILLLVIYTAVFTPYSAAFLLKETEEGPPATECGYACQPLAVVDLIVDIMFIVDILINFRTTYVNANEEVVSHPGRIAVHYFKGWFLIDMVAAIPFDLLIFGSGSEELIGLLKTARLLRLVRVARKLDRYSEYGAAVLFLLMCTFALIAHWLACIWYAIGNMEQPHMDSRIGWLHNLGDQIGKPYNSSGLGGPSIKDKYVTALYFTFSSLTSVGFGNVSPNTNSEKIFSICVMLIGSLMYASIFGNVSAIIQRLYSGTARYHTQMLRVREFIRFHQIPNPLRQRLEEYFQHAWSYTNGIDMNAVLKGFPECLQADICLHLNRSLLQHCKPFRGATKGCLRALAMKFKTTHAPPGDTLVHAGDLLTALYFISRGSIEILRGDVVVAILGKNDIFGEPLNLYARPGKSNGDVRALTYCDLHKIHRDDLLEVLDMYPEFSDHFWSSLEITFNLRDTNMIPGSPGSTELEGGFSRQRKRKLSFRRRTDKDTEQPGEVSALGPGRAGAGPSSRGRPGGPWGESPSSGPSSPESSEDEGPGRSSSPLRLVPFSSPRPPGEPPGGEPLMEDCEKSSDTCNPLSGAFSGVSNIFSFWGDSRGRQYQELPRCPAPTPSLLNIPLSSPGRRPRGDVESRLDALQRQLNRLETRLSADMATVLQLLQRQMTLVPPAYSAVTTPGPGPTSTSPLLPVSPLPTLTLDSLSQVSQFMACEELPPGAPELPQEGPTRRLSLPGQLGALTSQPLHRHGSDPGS

| Structure (SMILES) | hERG current change (%, negative = inhibition) at 1uM [%] |
| --- | --- |
| Cc1ccccc1NC(=O)COC(=O)/C=C/c1cccc(C(F)(F)F)c1 | 0.0962 |
| CC(=O)Nc1cccc(NC(=O)Nc2ccc(F)cc2F)c1 | 15.3 |
| CC(CNC(=O)COc1ccccc1)OC(=O)Nc1ccc(Cl)c(Cl)c1 (stereo not shown) | 8.02 |
| c1ccc(CCC2CCCCN2Cc2cn[nH]c2-c2cc3ccccc3o2)nc1 (stereo not shown) | -67 |
| CCOC(=O)c1cn[nH]c1NC(=S)Nc1ccc(OC)cc1 | 13.3 |
| COc1ccccc1N1CCN(C(=O)C2CCN(S(=O)(=O)c3ccccc3F)CC2)CC1 | 6.93 |
| COc1ccc(/C(O)=C2\C(=O)C(=O)N(CCN(C)C)C2c2cccc(OC)c2OC)cc1 (stereo not shown) | 10.7 |
| COc1cc(/C=N/NC(=O)Cc2ccc(Br)cc2)cc(OC)c1O | 15.4 |
| Cc1oc2c(cc(NS(=O)(=O)c3ccc4c5c(cccc35)C(=O)N4)c3ccccc32)c1C(=O)OC(C)C | 9.59 |
| CC1CC(C)CN(C(=O)Cn2ncc3c([nH]c4ccccc43)c2=O)C1 (stereo not shown) | 20.6 |
| O=C(NC1CC1)C1=C[C@H](c2csc3ccccc23)C[C@H](OCCCCO)O1 | 8.58 |
| Cc1cc(C)n2nc(CC(=O)NNC(=O)c3ccccc3Cl)nc2n1 | 17.8 |
| O=S(=O)(c1ccc(F)cc1)N(CCO)CC(O)Cn1c2ccccc2c2ccccc21 (stereo not shown) | 11.1 |
| COCc1cc(C)nc(OCC(=O)N/N=C/c2cccc(OC)c2)c1C#N | 8.44 |
| CNC(=O)COC(=O)c1cc(-c2ccc(OC)cc2)nc2ccccc12 | 0.122 |
| COc1ccc2[nH]cc(CCN(C)C)c2c1 | 9.75 |
| CC1S/C(=N/N=C/c2cccs2)NC1=O (stereo not shown) | 8.3 |
| O=C1C=C(c2cc3ccccc3s2)C[C@@H](c2ccc3c(c2)OCO3)C1 | 8.75 |
| O=C(Nc1ccc2c(c1)CCC2)c1c(F)cccc1Cl | 22.5 |
| Cc1cccc(NC(=O)c2cc3ccccc3nc2C)c1 | 15.1 |
| O=C(Nc1cccc2ccccc12)c1cnsn1 | 7.68 |
| c1ccc(SCc2nc(-c3ccncc3)n[nH]2)nc1 | 5.95 |
| Cc1cc(C)cc(NC(=O)C(Sc2ncnc3ccccc23)c2ccccc2)c1 (stereo not shown) | 18 |
| O=C(NCC1(c2ccccc2)CCCC1)C(=O)N1CCOCC1 | 10.2 |
| CCN1CCN(c2ccc(S(=O)(=O)N3CCCCC3)cc2NC(=O)COc2ccccc2)CC1 | -8.8 |
| Cc1ccc(/C=C(\CCC(=O)O)c2nc3ccccc3s2)cc1[N+](=O)[O-] | 13.1 |
| CCOC(=O)c1nn(-c2ccccc2)c2nnc(Cc3ccccc3)c(=O)n12 | 6.15 |
| Cc1ccc(-c2csc(N(Cc3ccccc3)C(=O)COc3ccccc3)n2)cc1 | 7.31 |

| Structure (SMILES) | hERG current change (%, negative = inhibition) at 1uM [%] |
| --- | --- |
| O=C1C(c2ccc(F)cc2)N(Cc2ccc3c(c2)OCO3)C(=O)CN1C1CCCC1 (stereo not shown) | 9.97 |
| CC1=C(C(N)=O)C(c2ccc(Br)cc2)n2nc(CCCO)nc2N1 (stereo not shown) | 13.1 |
| Cc1ccc(CN2CC(C(=O)N3CCN(S(=O)(=O)c4ccc(C(C)C)cc4)CC3)CC2=O)cc1 (stereo not shown) | -7.96 |
| Cc1ccc(Cn2c(=O)c3ccccc3n3c(CCC(=O)NCCN4CCOCC4)nnc23)cc1 | -0.353 |
| O=C(Nc1nnc(S(=O)(=O)N2CCOCC2)s1)c1ccccc1Cl | 4.11 |
| COc1cc2cc(CCCOC(=O)c3ccc4c(c3)OCO4)oc(=O)c2cc1OC | 12.1 |
| COc1ccccc1NC(=O)Nc1ccc2c(c1)CCC2 | 8.95 |
| CSc1ccc(/C=N/NC(=O)c2cc(O)cc(O)c2)cc1 | 6.37 |
| C#CC[N+]1(C)[C@@H]2CC[C@H]1CC(OC(=O)C(CO)c1ccccc1)C2.[Br-] (stereo partly shown) | 9.58 |
| Cc1cc([N+](=O)[O-])ccc1NCc1ccco1 | 6.94 |
| CC(C)(C)c1ccc(NC(=O)NC2CCCc3ccccc32)cc1 (stereo not shown) | 17.9 |
| O=C(/C=C/c1ccc(Cl)cc1)Nc1ccc(Br)cn1 | 7.07 |
| O=C(NCc1ccccc1)Nc1cc(Cl)ccc1Cl | 14.8 |
| O=C(COc1ccc([N+](=O)[O-])cc1Cl)Nn1cnnc1 | 12.2 |
| CSc1cccc(NC(C)C(=O)NCc2ccccc2)c1 (stereo not shown) | 31.8 |
| N/C(=N\OC(=O)c1cc(-c2ccccc2)nc2ccccc12)c1ccc(Cl)cc1 | -7.02 |
| CCN=c1scc(C)n1/N=C/c1cc(Br)c(O)c(OC)c1 | 6.63 |
| Cc1cc(C)n2nc(SCCOc3ccc(F)cc3)nc2n1 | -13.1 |
| CCCC(c1nnnn1C(C)(C)CC)N1CCN(C(=O)c2ccco2)CC1.Cl (stereo not shown) | -7.15 |
| COc1ccccc1NS(=O)(=O)c1cc(NC(=O)c2ccc3ccccc3n2)ccc1Cl | 12.4 |
| CCC(=O)N1CCc2cc(S(=O)(=O)CCC(=O)Nc3ccc(C)cn3)ccc21 | 4.89 |
| CCN(C(=O)COC(=O)C1CCN(S(=O)(=O)c2ccc(C)c(C)c2)CC1)C1CCS(=O)(=O)C1 (stereo not shown) | 13.2 |
| COc1ccc(-n2c(O)c(C(C)=NCCc3c[nH]c4ccccc34)c(=O)[nH]c2=O)cc1 | 17.3 |
| O=C(Nc1cc(C(F)(F)F)ccc1Cl)C(Sc1nnc(-c2cccs2)o1)c1ccccc1 (stereo not shown) | 11.3 |
| S=c1nc(-c2cc(Cl)cc(Cl)c2)[nH][nH]1 | 13.3 |
| O=c1cc(-c2ccccc2F)nc(-c2ccccc2F)o1 | 9.54 |
| Cc1cc(O)ccc1N/C=C(\C#N)c1nc2ccccc2o1 | 13.5 |
